According to the supplement of paper PMC4466236:
Whole data set: some 33,000 sequences, median “E-score (dimensionless, -0.5 to 0.5)” near -0.058, cut for the highest 2% near 0.35. Some of the results follow.

Each sequence was assayed on MvaT (assay: PBM 8-mer E-score (mean of HK and ME arrays) (E-score (dimensionless, -0.5 to 0.5)); higher = stronger relative binding preference; most listed sequences are background and not binding sites).
Description: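 Protein binding microarray: GST-tagged full-length MvaT (P. aeruginosa PAO1) bound to two universal double-stranded 60-mer arrays (ME and HK), each with a constant 25-mer primer and a variable 35-mer region covering all 8-mers. The 8-mer E-score (rank-based, range -0.5 to 0.5, >0.45 = specific binding) is the mean of the two arrays.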

Sequence | PBM 8-mer E-score
GTTAGGGA | -0.125
CGCGTGGA | -0.0505
GCCTAGGC | -0.274
ACGTCTAG | -0.0697
CCTGGCTC | -0.263
AGTGACCG | -0.174
ACCGTGGA | -0.0746
CAGTAAGA | 0.117
CCGACGAA | -0.1
ACTCACGG | -0.0293
AGTGGTGC | -0.111
GCCTGACC | -0.304
AGGTGAGC | -0.188
ACCCCCTG | -0.329
CAACTGGG | -0.206
GATCCCCA | -0.375
CGAATCTA | -0.144
TGGCAGAA | -0.0937
CCCTGTTC | -0.223
CTTCCAAG | -0.0921
GTTGCATA | 0.0505
ATCTCGCG | -0.00457
GAGCACAC | -0.11
ACTGTTTA | 0.254

Sequence | PBM 8-mer E-score
AGTCTCAG | -0.159
ATCTACTA | 0.127
AAGCCATG | -0.168
ATGTTAAC | 0.363
CCAATCGA | -0.0723
GATACTTA | 0.249
AACATAAG | 0.298
CACTCAGG | -0.246
AACCCACC | 0.00233
GACACCGA | -0.0868
AGCAGCTA | -0.157
GTCGATCA | -0.174
GGTTTCAA | 0.0105
GCCCGGTA | -0.246
ACTTTCTC | 0.00806
CGGACTGC | -0.151
AATGCATG | -0.00242
ATTGAGCG | -0.0447
CGTAAATA | 0.236
ATTTTCCG | 0.181
ATTCGTTA | 0.231
AATCTTGA | 0.0713
GCCCCCTA | -0.3
AGATCGAG | -0.129

Sequence | PBM 8-mer E-score
GCTGCCCC | -0.201
AGGCATGG | -0.181
ACCCATAA | 0.216
CAGTTAAC | 0.221
GGGGTCAA | -0.266
AAACGAGA | -0.0683
AATGCTTA | 0.137
CGCCCGCA | -0.167
CACGCTAA | 0.000335
AGTGCCTG | -0.0207
AGCATGCC | -0.261
GGAAGTCA | -0.0511
GCCTTAGC | -0.264
GTGGTCTA | -0.0936
GATGTCCC | -0.161
ATTTTCGA | 0.0907
ACGATGCT | -0.0713
AACTAGAA | 0.251
GTCAGGAC | -0.053
CCTAACCC | -0.192
CTAGTAGA | -0.0255
CACGGCCC | -0.26
CTTGGGAA | -0.084
AGCGCCCG | -0.268

Sequence | PBM 8-mer E-score
ACACCGTC | -0.119
CAGTTGAC | 0.0902
CCGCGCCA | -0.218
GCGTTGAA | 0.129
AATAGAAC | 0.143
TGAACTCA | -0.0486
GCCCTGAA | 0.0414
AATCGCTA | 0.0672
CCTAAAGC | -0.268
ATGAAATA | 0.228
GGGTAGAA | -0.00939
ACCCAACG | -0.0289
ATCCATAC | 0.0888
GGGAGTAC | -0.145
CTTCAACC | -0.107
GCAGGCCC | -0.325
ATATGGAC | 0.108
CCCATTCC | -0.283
AAACTCCC | -0.103
AAGATTAG | 0.179
CTTTAACA | 0.128
GTTAATTA | 0.415
